Measured values reported in a compilation of properties of binary mixtures (doi:10.1007/s10973-016-5820-0).
The densities may have been worked out from excess volumes.

Assay: xn = mol fraction of the nth substance listed
Conditions: 100 kPa

O=C1CCCCC1 + CCCC[n+]1ccn(C)c1.F[B-](F)(F)F
mass density [kg/m3]
Conditions	293.15 K	298.15 K	303.15 K	308.15 K
x2 = 0	947.4	–	938.1	933.2
x2 = 0.0736	981.2	977	972.4	–
x2 = 0.1128	997.8	993.7	–	–
x2 = 0.1597	1016.4	–	1008.2	1004
x2 = 0.2045	–	1029.2	1025.1	1021
x2 = 0.2459	–	1043.7	1039.7	1035.7
x2 = 0.2933	1063.1	–	–	1051.5
x2 = 0.3481	1079.7	1075.8	1072.1	–
x2 = 0.3956	1093	1089.2	1085.5	1081.8
x2 = 0.4429	1105.3	1101.5	1097.9	1094.3
x2 = 0.4937	1117.6	1113.8	1110.3	1106.6
x2 = 0.5344	1126.8	1122.9	1119.5	1115.9
x2 = 0.5938	1139.2	1135.3	1131.9	1128.4
x2 = 0.6557	1151	1147.2	–	1140.3
x2 = 0.7028	1159.3	1155.5	1152.1	1148.7
x2 = 0.7409	1165.7	1161.8	–	–
x2 = 0.7973	1174.6	1170.7	1167.3	1163.9
x2 = 0.8564	1183.4	1179.4	1176	1172.6
x2 = 0.9047	1190.2	1186.2	1182.7	–

CCCC[n+]1ccn(C)c1.F[B-](F)(F)F + O=C1CCCCC1
x1 = 1
Conditions	mass density [kg/m3]
293.15 K	1203.1
298.15 K	1198.9
303.15 K	1195.3
308.15 K	1191.7
